Experiment [1] relates to HSkMC (human skeletal muscle cells). The experiment is described as follows: cytotoxicity call (relative viability < 0.9). Conditions: 10 µM.
In experiment [2] the test system is S. aureus RN4220. The experiment is described as follows: growth inhibition call (relative growth <= 0.2). Conditions: 50 µM.

Some of the results follow.

As to `COCC(=O)Nc1ccc2c(c1)C(=O)N(C)[C@H]1CC[C@@H](CC(=O)N3CCc4ccccc4C3)O[C@@H]1CO2`, in experiment [1], the cytotoxicity call was “inactive”. For the same compound, the growth inhibition call in experiment [2] was “inactive”.

As to `CC(C)N1CCN(c2ccc(OCC3COC(Cn4cncn4)(c4ccc(Cl)cc4Cl)O3)cc2)CC1` (stereo not given), the cytotoxicity call in experiment [1] was “inactive”. Also, the growth inhibition call in experiment [2] was “inactive”.

`COc1ccc([Si](C)(C)[C@@H]2[C@@H](CC(=O)N(CCO)Cc3ccccc3)O[C@]3(C(=O)N(Cc4cccc(N5CCC5=O)c4)c4ccccc43)[C@H]2C)cc1`: in experiment [1], the cytotoxicity call was “inactive”. Also, the growth inhibition call in experiment [2] is “inactive”.

In the case of `CC(C)NC(=O)N(C)C[C@H]1Oc2c(NC(=O)Nc3ccc4c(c3)OCO4)cccc2C(=O)N([C@H](C)CO)C[C@H]1C`, the cytotoxicity call in experiment [1] is “inactive”. Besides, the growth inhibition call in experiment [2] was “inactive”.

Take `NCCCCCc1nnc(SCC(N)=O)o1`: the cytotoxicity call in experiment [1] is “inactive”. For the same compound, the growth inhibition call in experiment [2] is “inactive”.

In the case of `CC/N=C1\S[C@@H](CC(=O)NC)C(=O)N1CC`, in experiment [1], the cytotoxicity call is “inactive”. The growth inhibition call in experiment [2] was “inactive”.

`COC(=O)c1c2oc(c1C(=O)OC)C(=O)N[C@H](Cc1ccccc1)Cn1cc(nn1)CNC(=O)[C@@H](Cc1ccccc1)NC(=O)N[C@@H](CO)CC2`: the cytotoxicity call in experiment [1] is “inactive”. In experiment [2], the growth inhibition call is “inactive”.

Take `C[C@@H]1CN([C@H](C)CO)C(=O)Cc2cc(NC(=O)Cc3cn(C)c4ccccc34)ccc2O[C@@H]1CN(C)Cc1ccc(C(=O)Nc2ccccc2N)cc1`: the cytotoxicity call in experiment [1] was “inactive”. Besides, the growth inhibition call in experiment [2] is “inactive”.

As to `COc1ccc(CN(C)C[C@H]2OCCCC[C@H](C)Oc3ccc(NS(=O)(=O)c4ccccc4)cc3C(=O)N([C@H](C)CO)C[C@H]2C)cc1`, the cytotoxicity call in experiment [1] was “inactive”. For the same compound, in experiment [2], the growth inhibition call is “inactive”.

For the compound `COc1cccc(CN(C)C[C@@H]2OCc3ccccc3-c3c(n(C)c4ccccc34)C(=O)N([C@@H](C)CO)C[C@@H]2C)c1`, in experiment [1], the cytotoxicity call was “inactive”. The growth inhibition call in experiment [2] is “inactive”.

Take `C[C@H]1CCCCO[C@@H](CN(C)Cc2ccc3c(c2)OCO3)[C@@H](C)CN([C@@H](C)CO)C(=O)c2cc(NS(=O)(=O)c3ccccc3)ccc2O1`: the cytotoxicity call in experiment [1] is “inactive”. Also, the growth inhibition call in experiment [2] was “inactive”.

As to `O=C(C[C@H]1CC[C@@H]2[C@H](COC[C@H](O)CN2S(=O)(=O)c2ccc(Cl)cc2)O1)N[C@@H]1CCN(Cc2ccccc2)C1`, in experiment [1], the cytotoxicity call is “inactive”. The growth inhibition call in experiment [2] is “inactive”.

Turning to `C[C@@H]1CN([C@@H](C)CO)S(=O)(=O)c2ccc(C#Cc3ccccc3)cc2O[C@H]1CN(C)S(C)(=O)=O`, the cytotoxicity call in experiment [1] was “inactive”. Also, the growth inhibition call in experiment [2] was “inactive”.

In the case of `COc1ccc(S(=O)(=O)N(C)C[C@@H]2Oc3cc(-c4ccccc4OC)ccc3S(=O)(=O)N([C@@H](C)CO)C[C@@H]2C)cc1`, the cytotoxicity call in experiment [1] is “inactive”. Besides, the growth inhibition call in experiment [2] was “inactive”.

On to `COc1cccc(S(=O)(=O)N2C[C@@H](O)COC[C@@H]3O[C@@H](CC(=O)N4CCOCC4)CC[C@H]32)c1`, for which, in experiment [1], the cytotoxicity call is “inactive”. Moreover, in experiment [2], the growth inhibition call is “inactive”.

For `C[C@@]1(c2ccc3c(c2)OCCO3)NC(=O)NC1=O`, in experiment [1], the cytotoxicity call is “inactive”. The growth inhibition call in experiment [2] is “inactive”.

As for `C[C@@H]1CN([C@H](C)CO)C(=O)Cc2cc(NC(=O)NC3CCCCC3)ccc2O[C@H]1CN(C)Cc1ccc(Cl)c(Cl)c1`, in experiment [1], the cytotoxicity call is “active”. The growth inhibition call in experiment [2] is “inactive”.

In the case of `Cc1noc(C)c1NC(=O)Nc1ccc2c(c1)C(=O)N([C@H](C)CO)C[C@@H](C)[C@H](CN(C)Cc1ccc(C(F)(F)F)cc1)O2`, in experiment [1], the cytotoxicity call is “inactive”. Further, the growth inhibition call in experiment [2] is “inactive”.

For `CCOC(=O)C1=NNC[C@@H]1C(=O)OCC`, the cytotoxicity call in experiment [1] was “inactive”. Moreover, the growth inhibition call in experiment [2] is “inactive”.

On to `COCC#Cc1ccc([C@@H]2[C@@H](CO)N3C(=O)CN(C(=O)c4cccnc4)C[C@H]23)cc1`, for which the cytotoxicity call in experiment [1] was “inactive”. In addition, in experiment [2], the growth inhibition call is “inactive”.

In the case of `C[C@@H]1CN([C@H](C)CO)C(=O)c2cccc(NC(=O)c3nc4ccccc4s3)c2O[C@H]1CN(C)Cc1ccc(C(F)(F)F)cc1`, in experiment [1], the cytotoxicity call was “active”. Moreover, the growth inhibition call in experiment [2] is “inactive”.

With `C[C@@H]1CCCCO[C@@H](CN(C)C(=O)c2ccncc2)[C@@H](C)CN([C@H](C)CO)C(=O)c2cc(NC(=O)C3CCCCC3)ccc2O1`, in experiment [1], the cytotoxicity call was “inactive”. The growth inhibition call in experiment [2] was “inactive”.

With `C[C@@H]1CCCCO[C@@H](CN(C)C(=O)C2CCCCC2)[C@@H](C)CN([C@@H](C)CO)C(=O)c2cc(NC(=O)c3ccccc3)ccc2O1`, in experiment [1], the cytotoxicity call is “inactive”. Further, the growth inhibition call in experiment [2] is “inactive”.

`Cc1ccc(S(=O)(=O)N(C)C[C@H]2Oc3c(NC(=O)c4cnccn4)cccc3C(=O)N([C@@H](C)CO)C[C@@H]2C)cc1`: in experiment [1], the cytotoxicity call is “inactive”. Also, in experiment [2], the growth inhibition call is “inactive”.

As to `C[C@H](CO)N1C[C@H](C)[C@H](CN(C)S(=O)(=O)c2cccs2)OCCCC[C@H](C)Oc2ccc(NS(=O)(=O)c3cn(C)cn3)cc2C1=O`, the cytotoxicity call in experiment [1] was “inactive”. The growth inhibition call in experiment [2] was “inactive”.

On to `NNC(=S)Nc1cccc(F)c1`, for which the cytotoxicity call in experiment [1] is “inactive”. The growth inhibition call in experiment [2] was “inactive”.

Consider `COCC(=O)N(C)C[C@@H]1Oc2cc(C#Cc3cccnc3)ccc2S(=O)(=O)N([C@H](C)CO)C[C@@H]1C`, for which, in experiment [1], the cytotoxicity call was “inactive”. In addition, the growth inhibition call in experiment [2] is “inactive”.

As for `C[C@H](CO)N1C[C@H](C)[C@@H](CN(C)S(=O)(=O)c2cccs2)OCCCC[C@H](C)Oc2ccc(NC(=O)Cc3ccccc3)cc2C1=O`, the cytotoxicity call in experiment [1] was “inactive”. In experiment [2], the growth inhibition call was “inactive”.

For the compound `COc1ccc(NC(=O)N(C)C[C@@H]2OCCCC[C@@H](C)Oc3ccc(NC(=O)Nc4ccc(F)cc4)cc3C(=O)N([C@H](C)CO)C[C@H]2C)cc1`, in experiment [1], the cytotoxicity call is “inactive”. Besides, in experiment [2], the growth inhibition call was “inactive”.

As for `C=CCOC(=O)[C@@H]1[C@H]2C(=O)O[C@H](c3ccccc3)[C@H](c3ccccc3)N2[C@H](c2ccc(OCCOC(=O)[C@H]3C[C@H]4C(=O)N[C@@H](CC(C)C)C(=O)N4[C@H]3c3cccc(OCCO)c3)cc2)[C@@]12C(=O)Nc1ccccc12`, the cytotoxicity call in experiment [1] is “inactive”. For the same compound, the growth inhibition call in experiment [2] was “inactive”.

These data come from the antibiotic and cytotoxicity screens of Wong et al. (2023).
